Test results from PubChem BioAssay AID624418 (National Center for Advancing Translational Sciences (NCATS), 2012).
Among all 410,000 compounds or so, about 530 (0.13%) were called active. This list was built around the results that the source calls inconclusive (neither active nor inactive); the mix of calls is not that of the screen. Calls follow the shape of the dose curve; as a rule, active = well fitted inhibition curve with a large enough effect; inconclusive = small, poorly fitted or top-dose-only effect, or another doubt; inactive = no such curve, though single readings can be large or run the other way. Potencies beside an inconclusive call are fits to weak or partial responses and may not hold up.
% is scaled to controls: 0 for no effect and ±100 for the full control effect; potency is read from the fitted curve at half-maximal effect.

Assay: qHTS of GLP-1 Receptor Inverse Agonists: Cytotox Screen
Settings: HEK293 cAMP-luciferase reporter cells, luminescence, 24 h; activity change, negative = inhibition: at 38.3 µM (top of the series) unless noted
Outline: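 Seeding density was 200 cells/uL; after overnight-length (12 h) culture, 23 nL compounds went on for 24 h at 37 °C. Readout used a luciferase detection reagent, luminescence taken after 12 min at room temperature.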
For `Cc1ccc(-n2nc3c(N4CCC(C(=O)NCc5ccc(C)o5)CC4)nnc(C)c3c2C)cc1`, the Potency was inconclusive: 28.2 µM [inhibitor, single point]. For `O=c1cc(N2CCN(c3ccccc3Cl)CC2)[nH]c(=O)n1Cc1ccc(F)cc1`, the Potency was inconclusive: 2.51 µM [inhibitor, partial curve, poor fit]. For `COc1ccc(-n2nc(C(=O)NCC(=O)NCCN(C)C)c3ccccc3c2=O)cc1`, the Potency was inconclusive: 14.1 µM [inhibitor, single point]. For `N=c1n(CCCOc2ccccc2Cl)c2ccccc2n1CC(N)=O`, the Potency was inconclusive: 17.8 µM [inhibitor, single point]. For `Cc1ccc(NS(=O)(=O)c2ccc(-c3cnc(C4CC4)o3)cc2)cc1N(C)C`, the Potency was inconclusive: 0.316 µM [inhibitor, full curve, poor fit]. In the case of `CCOC(=O)c1nn(-c2cccc(C)c2)c2nc(-c3ccccc3)c(C#N)c(=O)n12`, the “activity change, negative = inhibition” value was inactive: -8.79%. For `COc1ccc(S(=O)(=O)N2CCCC2CNC(=O)C(=O)NCCc2ccccc2)cc1` (stereo not given), the Potency was inconclusive: 22.4 µM [inhibitor, single point]. With `S=C(NN=C(c1ccccc1)c1ccccn1)N(Cc1ccccn1)Cc1ccccn1` the Potency was inconclusive: 3.98 µM [inhibitor, full curve]. For `O=C(CCc1nnc(CCCc2ccccc2)o1)NCCc1ccccc1`, the “activity change, negative = inhibition” value was inactive: -0.872%. In the case of `C=CCc1c(OC)ccc2ccc(=O)oc12`, the “activity change, negative = inhibition” value was inactive: 6.73%. For `CC(C)(C)CC(=O)NC(=S)NCc1ccccc1`, the Potency was inconclusive: 1.78 µM [inhibitor, full curve, poor fit]. For `COc1ccccc1C/C(N)=N/OC(=O)c1ccc2c(c1)OCO2`, the Potency was inconclusive: 28.2 µM [inhibitor, single point]. For `CCc1[nH]nc2c1C(c1ccc(Br)s1)C(C#N)=C(N)O2` (stereo not given), the Potency was inconclusive: 10 µM [inhibitor, single point]. In the case of `CCc1cc(-c2n[nH]c(C)c2-c2ccccc2Cl)c(O)cc1OC`, the Potency was inconclusive: 28.2 µM [inhibitor, single point]. In the case of `Fc1ccc(C(CCNCc2ccccn2)c2ccc(Cl)cc2)cc1` (stereo not given), the activity change, negative = inhibition was inconclusive: -48.3% [inhibitor]. In the case of `O=C(NC(=S)NCCc1ccccc1)c1ccco1`, the Potency was inconclusive: 20 µM [inhibitor, single point]. For `CCOC(=O)C1=C(C)NC(=S)N(C(C)=O)C1c1ccc(Cl)cc1` (stereo not given), the Potency was inconclusive: 28.2 µM [inhibitor, single point]. With `Cc1cccc(CN2C(=O)c3ccccc3Sc3ccc(C(=O)NCCN4CCOCC4)cc32)c1` the Potency was inconclusive: 22.4 µM [inhibitor, single point]. For `CCOc1ccc(NC(=O)CN2CCN(CC(=O)Nc3ccc(F)cc3)CC2)cc1`, the “activity change, negative = inhibition” value was inactive: -12.6%. With `CC(C)(C)c1nc(S(=O)(=O)c2ccc(Cl)cc2)c(N2CCOCC2)o1` the “activity change, negative = inhibition” value was inactive: 11.4%. With `CCOC(=O)c1c(CC(C)C)csc1/N=C/C1=C(O)CCCC1=O` the Potency was inconclusive: 28.2 µM [inhibitor, single point]. For `CC1CCc2c(sc(NC(=O)Cn3nc(C(=O)O)c4ccccc4c3=O)c2C#N)C1` (stereo not given), the “activity change, negative = inhibition” value was inactive: -23.3%. For `COc1cc(O)c(CC=C(C)C)c(O)c1C(=O)CCc1ccc(O)cc1`, the Potency was inconclusive: 7.94 µM [inhibitor, partial curve]. For `COc1ccc(C)cc1NC(=O)COC(C)=O`, the “activity change, negative = inhibition” value was inactive: 8.08%. With `Clc1cccc(CN2CCc3c([nH]c4ccccc34)C2)c1` the Potency was inconclusive: 28.2 µM [inhibitor, single point]. With `CC(=O)Nc1cccc(-c2ccnc3c2CC(C(=O)Nc2ccc4c(c2)OCO4)O3)c1` (stereo not given) the Potency was inconclusive: 10 µM [inhibitor, partial curve, poor fit]. With `Cc1ccc(CN2CC(C(=O)N3CCN(c4ccccc4O)CC3)CC2=O)cc1` (stereo not given) the “activity change, negative = inhibition” value was inactive: 10.6%. With `C=CCOc1ccccc1CNc1ccc2c(c1)OCCO2` the “activity change, negative = inhibition” value was inactive: -12.5%. In the case of `Cc1nc2ccccc2c(=O)n1NC(=O)c1cncc(Br)c1`, the Potency was inconclusive: 1 µM [inhibitor, full curve, poor fit]. With `O=C(c1ccc(F)cc1F)N1CCC(c2nc(-c3ccc(S(=O)(=O)N4CCCC4)cc3)no2)CC1` the “activity change, negative = inhibition” value was inactive: -8.15%. In the case of `N#CC1=C2N=C(N)c3ccccc3N2C2=C(C(=O)CCC2)C1c1ccc(Cl)cc1` (stereo not given), the Potency was inconclusive: 8.91 µM [inhibitor, partial curve, poor fit]. With `COCCNC(=O)c1ccc(CN2CCC(Cc3ccccc3)CC2)cc1` the “activity change, negative = inhibition” value was inactive: 19.7%. For `Cc1ccnc2c1ccc1cccnc12`, the Potency was active: 1.58 µM. In the case of `CCc1cc2c(=O)c(-c3ccc4c(c3)OCCO4)coc2cc1OS(C)(=O)=O`, the Potency was inconclusive: 7.08 µM [inhibitor, partial curve]. With `CC(=O)Nc1ccc(C(=S)NCC2(N(C)C)CCCCC2)cc1` the Potency was inconclusive: 11.2 µM [inhibitor, single point]. In the case of `Cc1cc(C)cc(Nc2ncnc3sc4c(c23)CCCC4)c1`, the “activity change, negative = inhibition” value was inactive: 14.1%. In the case of `Cc1cc(OC(=O)c2ccc(F)cc2)c([N+](=O)[O-])c(=O)[nH]1`, the Potency was inconclusive: 28.2 µM [inhibitor, single point]. With `O=C(NCCN1CCNC1=O)c1ccc2sc([C@@H]3O[C@H](CO)[C@H](O)[C@H](O)[C@H]3O)nc2c1` the “activity change, negative = inhibition” value was inactive: 2.16%. With `O=C(Nc1ccccc1-c1nnn(CC(=O)N2CCN(c3ccccc3)CC2)n1)c1cccs1` the Potency was inconclusive: 3.55 µM [inhibitor, partial curve, poor fit]. For `CC(C)C(c1nnnn1Cc1ccccc1)N1CCN(Cc2ccc3c(c2)OCO3)CC1` (stereo not given), the “activity change, negative = inhibition” value was inactive: 23%. For `Cc1cc(C)nc(SCc2ccc(C(=O)NNC(=O)Nc3cccc(Cl)c3)cc2)n1`, the Potency was inconclusive: 28.2 µM [inhibitor, single point]. For `OCC1(Cc2ccc(F)cc2F)CCCN(Cc2ccc(Cl)cc2)C1` (stereo not given), the Potency was inconclusive: 28.2 µM [inhibitor, single point]. With `O=C(C=Cc1ccco1)c1cc(Cl)ccc1O` the Potency was inconclusive: 22.4 µM [inhibitor, single point]. With `CCC(=O)c1ccc(OCC(=O)Nc2cc(S(=O)(=O)N3CCCCC3)ccc2N2CCN(CC)CC2)cc1` the Potency was inconclusive: 28.2 µM [inhibitor, single point]. In the case of `Cc1cc(SCC(=O)OC/C(O)=C(\C#N)c2nc3ccccc3[nH]2)c(C)cc1Br`, the Potency was inconclusive: 12.6 µM [inhibitor, partial curve, poor fit]. With `O=C(CCN1C(=O)/C(=C/c2ccc(Cl)cc2)SC1=S)Nc1cccc(C(=O)O)c1` the Potency was inconclusive: 28.2 µM [inhibitor, single point]. In the case of `C=C1c2cc(CC)ccc2NC(=O)N1c1ccc(C)cc1`, the Potency was inconclusive: 28.2 µM [inhibitor, partial curve, poor fit]. In the case of `COc1ccc(NC(=O)CN(C)C(=O)/C=C/c2ccc(OCc3ccccc3)cc2)cc1`, the Potency was inconclusive: 12.6 µM [inhibitor, single point]. With `C=C1C(=O)OC2C=C(CO)CCC=C(CO)CC(OC(=O)C(C)C)C12` (stereo not given) the Potency was inconclusive: 22.4 µM [inhibitor, single point]. For `Cc1ccc(/C=C/C(=O)N2CC(C)CC(C)C2)o1` (stereo not given), the Potency was inconclusive: 11.2 µM [inhibitor, single point]. With `COc1ccc(/C(C)=N/OC/C(O)=C(\C#N)c2nc3ccccc3[nH]2)c(OC)c1` the Potency was inconclusive: 12.6 µM [inhibitor, partial curve, poor fit]. With `COc1ccc(CNC(=O)CSc2nnc(C)n2-c2ccc(F)cc2)cc1` the Potency was inconclusive: 12.6 µM [inhibitor, single point]. In the case of `CCC(C(=O)NC1CCCCC1)n1nc(C)c2sc3ccccc3c2c1=O` (stereo not given), the “activity change, negative = inhibition” value was inactive: -1.93%. With `Cc1ccc(C(=O)Nc2cccc(C(F)(F)F)c2)cc1Nc1cnccn1` the Potency was inconclusive: 7.94 µM [inhibitor, partial curve, poor fit]. In the case of `O=C(N/N=C/c1ccccc1OC(F)F)c1cc(-c2ccncc2)nc2ccccc12`, the Potency was inconclusive: 11.2 µM [inhibitor, partial curve, poor fit]. With `O=C(CCNS(=O)(=O)c1ccccc1C(F)(F)F)NCCCSc1ccccc1` the “activity change, negative = inhibition” value was inactive: 2.1%. For `CC1(C)O[C@@H]2[C@H](O1)[C@@H](COS(=O)(=O)O)O[C@H]2n1ccc(=O)[nH]c1=O`, the Potency was inconclusive: 0.501 µM [inhibitor, full curve, poor fit]. With `Cc1nn(-c2cc(N3CCOCC3)ccc2[N+](=O)[O-])c(=O)c2ccccc12` the Potency was inconclusive: 22.4 µM [inhibitor, single point]. In the case of `CC(C)c1ccc(NC(=S)Nc2cccc3ccccc23)cc1`, the Potency was inconclusive: 8.91 µM [inhibitor, partial curve]. For `O=C(/C=C/NNC(=O)c1ccccc1)c1ccccc1`, the Potency was active: 3.16 µM. For `Cc1ccccc1CC(=O)Nc1ccc2c(c1)c(=O)n(C)n2-c1cccs1`, the Potency was inconclusive: 14.1 µM [inhibitor, partial curve, poor fit]. For `Oc1ccc(/C=C/c2nc(-c3ccccc3O)n(-c3ccccc3)n2)cc1`, the Potency was inconclusive: 22.4 µM [inhibitor, single point]. With `CN(CC(=O)Nc1ccccc1Sc1ccccc1)Cc1nc2ccccc2c(=O)[nH]1` the Potency was inconclusive: 10 µM [inhibitor, partial curve, poor fit]. For `CCOC(=O)c1[nH]c2ccc(F)cc2c1NC(=O)C(C)N1CCc2cc(OC)c(OC)cc2C1` (stereo not given), the Potency was inconclusive: 8.91 µM [inhibitor, partial curve, poor fit]. For `CC1=NN(C(=O)c2ccc(Cn3nc(C)c([N+](=O)[O-])c3C)cc2)C(O)(C(F)(F)F)C1` (stereo not given), the Potency was inconclusive: 10 µM [inhibitor, single point].
